The target in experiment [1] is GST-CDK6 (UniProt Q00534). The experiment is described as follows: pull-down; GST-fusion protein on Pierce Glutathione agarose mixed with purified His-tagged protein at 4 °C for 2 hours; beads washed four times; western blot; both purified. For orientation: Immunoblotting shows a protein as a band on a membrane.
The target in experiment [2] is GST-CDK4 (UniProt P11802). Described as above.
Experiment [3] has as its target GST-YAP1 (UniProt P46937). Described as above.
Experiment [4] addresses CDK4 (endogenous) (human (endogenous in HCCLM3)) (UniProt P11802). The experiment is described as follows: co-IP; endogenous proteins; HCCLM3 or HepG2 cells lysed in NETN buffer, 4 hours with primary antibodies and protein A/G beads at 4 °C; beads washed four times; western blot.
The target in experiment [5] is YAP1 (endogenous) (human (endogenous in HCCLM3 and HepG2)) (UniProt P46937). The experiment is described as above.
Experiment [6] deals with CDK6 (endogenous) (human (endogenous in HCCLM3)) (UniProt Q00534). The experiment is described as above.

The chains behind the UniProt entries cited, without tags or fusion partners.
UniProt Q00534: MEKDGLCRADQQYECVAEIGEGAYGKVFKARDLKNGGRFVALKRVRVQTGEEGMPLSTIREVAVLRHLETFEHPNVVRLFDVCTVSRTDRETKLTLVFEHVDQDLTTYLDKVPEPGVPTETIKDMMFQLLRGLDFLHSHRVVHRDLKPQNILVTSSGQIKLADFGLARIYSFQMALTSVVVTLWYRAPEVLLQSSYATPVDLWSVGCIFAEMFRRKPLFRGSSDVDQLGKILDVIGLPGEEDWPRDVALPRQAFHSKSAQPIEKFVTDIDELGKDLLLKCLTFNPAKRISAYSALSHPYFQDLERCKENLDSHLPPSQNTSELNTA
UniProt P11802: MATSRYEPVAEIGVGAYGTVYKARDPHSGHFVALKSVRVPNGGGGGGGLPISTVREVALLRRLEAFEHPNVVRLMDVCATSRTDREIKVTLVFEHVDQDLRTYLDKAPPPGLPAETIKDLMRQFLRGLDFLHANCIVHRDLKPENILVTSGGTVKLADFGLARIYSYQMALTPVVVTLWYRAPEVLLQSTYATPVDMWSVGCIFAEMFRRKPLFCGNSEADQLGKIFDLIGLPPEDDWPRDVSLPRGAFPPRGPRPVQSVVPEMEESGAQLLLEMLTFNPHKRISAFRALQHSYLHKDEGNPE
UniProt P46937: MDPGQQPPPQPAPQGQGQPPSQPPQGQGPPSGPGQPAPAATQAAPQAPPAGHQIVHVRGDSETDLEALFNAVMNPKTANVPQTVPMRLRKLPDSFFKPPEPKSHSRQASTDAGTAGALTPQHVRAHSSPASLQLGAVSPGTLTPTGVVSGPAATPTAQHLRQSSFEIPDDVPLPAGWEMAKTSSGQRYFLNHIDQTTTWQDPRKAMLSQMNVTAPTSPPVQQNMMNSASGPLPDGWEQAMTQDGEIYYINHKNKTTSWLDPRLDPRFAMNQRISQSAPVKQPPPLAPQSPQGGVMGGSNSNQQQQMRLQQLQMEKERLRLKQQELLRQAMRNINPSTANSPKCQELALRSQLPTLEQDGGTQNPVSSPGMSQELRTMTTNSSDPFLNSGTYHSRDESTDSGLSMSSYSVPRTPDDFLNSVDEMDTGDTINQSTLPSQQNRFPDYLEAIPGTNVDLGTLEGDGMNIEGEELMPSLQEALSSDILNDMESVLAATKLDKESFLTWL

The source of these data is article PMC12044017, “CDK4/6-mediated phosphorylation of DUB3 promotes YAP1 stability and hepatocellular carcinoma progression” (Cell Death Discovery, 2025).

No constants are given. Whether binding was seen depends on the method and setting. For part of these data: Binding seen in cells or lysates may run through a third protein. Some binding calls cover weakened binding; strength is not graded here. For part of these data: Sequences can lack the tags named with a protein.

As for His-YAP1 (from UniProt P46937 1-504), the binding entry in experiment [1] and in experiment [2] was “no binding” in each case.

B1: His-DUB3 (enzyme, UniProt Q6R6M4 1-530)
chain: MEDDSLYLGGEWQFNHFSKLTSSRPDAAFAEIQRTSLPEKSPLSSEARVDLCDDLAPVARQLAPRKKLPLSSRRPAAVGAGLQNMGNTCYENASLQCLTYTPPLANYMLSREHSQTCQRPKCCMLCTMQAHITWALHSPGHVIQPSQALAAGFHRGKQEDAHEFLMFTVDAMKKACLPGHKQVDHHSKDTTLIHQIFGGCWRSQIKCLHCHGISDTFDPYLDIALDIQAAQSVKQALEQLVKPEELNGENAYHCGLCLQRAPASKTLTLHTSAKVLILVLKRFSDVTGNKLAKNVQYPECLDMQPYMSQQNTGPLVYVLYAVLVHAGWSCHDGHYFSYVKAQEGQWYKMDDAKVTACSITSVLSQQAYVLFYIQKSEWERHSESVSRGREPRALGAEDTDRRATQGELKRDHPCLQAPELDERLVERATQESTLDHWKFPQEQNKTKPEFNVRKVEGTLPPNVLVIHQSKYKCGMKNHHPEQQSSLLNLSSTTRTDQESVNTGTLASLQGRTRRSKGKNKHSKRALLVCQ
For B1, the binding result in experiment [3] is given as “binds”.

B2: DUB3 (endogenous) (enzyme, UniProt Q6R6M4 1-530)
chain: MEDDSLYLGGEWQFNHFSKLTSSRPDAAFAEIQRTSLPEKSPLSSEARVDLCDDLAPVARQLAPRKKLPLSSRRPAAVGAGLQNMGNTCYENASLQCLTYTPPLANYMLSREHSQTCQRPKCCMLCTMQAHITWALHSPGHVIQPSQALAAGFHRGKQEDAHEFLMFTVDAMKKACLPGHKQVDHHSKDTTLIHQIFGGCWRSQIKCLHCHGISDTFDPYLDIALDIQAAQSVKQALEQLVKPEELNGENAYHCGLCLQRAPASKTLTLHTSAKVLILVLKRFSDVTGNKLAKNVQYPECLDMQPYMSQQNTGPLVYVLYAVLVHAGWSCHDGHYFSYVKAQEGQWYKMDDAKVTACSITSVLSQQAYVLFYIQKSEWERHSESVSRGREPRALGAEDTDRRATQGELKRDHPCLQAPELDERLVERATQESTLDHWKFPQEQNKTKPEFNVRKVEGTLPPNVLVIHQSKYKCGMKNHHPEQQSSLLNLSSTTRTDQESVNTGTLASLQGRTRRSKGKNKHSKRALLVCQ
As for B2, the binding result in experiment [4], in experiment [5] and in experiment [6] was “binds” each time.
